From patent US5440016A, “Peptides of the formula (KFmoc) ZZZ and their uses” (priority 1993, dated 1995)
Values after ≈ are worked out from the molar mass of the structure shown. Like-named read-outs stand apart in the source and are kept apart here. Not every detail of the peptide structures is certain; ends, links or a residue may be inferred. Square brackets hold non-standard residues; d marks the D form. Peptide text beside a SMILES is read from it. * marks the point of attachment. Phe(4-NO2) = N[C@@H](Cc1ccc([N+](=O)[O-])cc1)C(=O)O; Met(O2) = CS(=O)(=O)CC[C@H](N)C(=O)O; Fmoc = O=C(OCC1c2ccccc2-c2ccccc21)*; Nle = CCCC[C@H](N)C(=O)O; Thz = O=C(O)[C@@H]1CSCN1; Nva = CCC[C@H](N)C(=O)O; Ahp = NCCCCCCC(=O)O; Ahx = NCCCCCC(=O)O; βAla = NCCC(=O)O

How the values were obtained:
[1] = system: Staphylococcus aureus ATCC 29213
[2] = system: Streptococcus sanguis ATCC 10556
[3] = Tables 7-9, lower parts (unnatural amino acids)
[4] = Tables 11-13, lower parts (unnatural amino acids)

Row | Structure (SMILES) | IC50 against S. aureus ([1]; Tables 6-9) [µg/mL] | IC50 against S. sanguis ([2]; Tables 10-13) [µg/mL] | IC50 against S. aureus [1, 3] [μg/m] | IC50 against S. sanguis [2, 4] [μg/m] | also measured
1 | NCCCC[C@H](NC(=O)OCC1c2ccccc2-c2ccccc21)C(=O)N[C@@H](Cc1c[nH]c2ccccc12)C(=O)N[C@@H](CCCCN)C(=O)N[C@@H](CC(=O)O)C(N)=O [(KFmoc)WKD-NH2] (Fmoc-KWKD-NH2) | 25 (≈ 31.4 µM) | 31 (≈ 38.9 µM) | – | – | IC50 against S. aureus ([1]; Tables 6-9, listed as (KFmoc)WKd-NH2): 14 µg/mL (≈ 17.6 µM); IC50 against S. sanguis ([2]; Tables 10-13, listed as (KFmoc)WKd-NH2): 19 µg/mL (≈ 23.8 µM)
2 | NCCCC[C@H](NC(=O)OCC1c2ccccc2-c2ccccc21)C(=O)N[C@@H](Cc1c[nH]c2ccccc12)C(=O)N[C@H](Cc1ccccc1)C(=O)N[C@@H](Cc1ccc(O)cc1)C(N)=O [(KFmoc)WfY-NH2] (Fmoc-KW[dF]Y-NH2) | 58 (≈ 67.1 µM) | 36 (≈ 41.7 µM) | – | – | –
3 | NCCCC[C@H](NC(=O)OCC1c2ccccc2-c2ccccc21)C(=O)N[C@@H](Cc1c[nH]c2ccccc12)C(=O)N[C@@H](Cc1ccc(O)cc1)C(=O)N[C@@H](Cc1ccc([N+](=O)[O-])cc1)C(N)=O [(KFmoc)WY(NO2 F)-NH2] (Fmoc-KWY[Phe(4-NO2)]-NH2) | – | – | 15 | 24 | –
4 | CCCC[C@H](NC(=O)[C@H](Cc1ccc(O)cc1)NC(=O)[C@H](Cc1c[nH]c2ccccc12)NC(=O)[C@H](CCCCN)NC(=O)OCC1c2ccccc2-c2ccccc21)C(N)=O [(KFmoc)WY(Nle)-NH2] (Fmoc-KWY[Nle]-NH2) | – | – | 14 | 17 | –
5 | NCCCC[C@H](NC(=O)OCC1c2ccccc2-c2ccccc21)C(=O)N[C@@H](Cc1c[nH]c2ccccc12)C(=O)N[C@@H](Cc1ccc(O)cc1)C(=O)NCCCCCC(N)=O [(KFmoc)WY(eAca)-NH2] (Fmoc-KWY[Ahx]-NH2) | – | – | 15 | 15 | –
6 | NCCCC[C@H](NC(=O)OCC1c2ccccc2-c2ccccc21)C(=O)N[C@@H](Cc1c[nH]c2ccccc12)C(=O)N[C@@H](Cc1ccc(O)cc1)C(=O)N1CSC[C@H]1C(N)=O [(KFmoc)WY(Thiopro)-NH2] (Fmoc-KWY[Thz]-NH2) | – | – | 20 | 36 | –
7 | NCCCC[C@H](NC(=O)OCC1c2ccccc2-c2ccccc21)C(=O)N[C@@H](Cc1c[nH]c2ccccc12)C(=O)N[C@@H](Cc1ccc(O)cc1)C(=O)N[C@@H](CC(N)=O)C(N)=O [(KFmoc)WYN-NH2] (Fmoc-KWYN-NH2) | 11 (≈ 13.2 µM) | 12 (≈ 14.4 µM) | – | – | –
8 | NCCCC[C@H](NC(=O)OCC1c2ccccc2-c2ccccc21)C(=O)N[C@@H](Cc1c[nH]c2ccccc12)C(=O)N[C@@H](CCCCN)C(=O)N[C@@H](CCC(N)=O)C(=O)O [(KFmoc)WK(gGlu)-NH2] (Fmoc-KWKQ-OH) | 18 (≈ 22.2 µM) | 32 (≈ 39.5 µM) | – | – | –
9 | CC[C@@H](C)[C@@H](NC(=O)[C@@H](CS)NC(=O)[C@H](CCCCN)NC(=O)OCC1c2ccccc2-c2ccccc21)C(=O)N[C@@H](Cc1ccc([N+](=O)[O-])cc1)C(N)=O [(KFmoc)ci(NO2 F)-NH2] (Fmoc-K[dC][dI][Phe(4-NO2)]-NH2) | – | – | 25 | 36 | –
10 | CSCC[C@H](NC(=O)[C@H](Cc1ccc(O)cc1)NC(=O)[C@H](Cc1c[nH]c2ccccc12)NC(=O)[C@H](CCCCN)NC(=O)OCC1c2ccccc2-c2ccccc21)C(N)=O [(KFmoc)WYM-NH2] (Fmoc-KWYM-NH2) | 12 (≈ 14.2 µM) | 11 (≈ 13 µM) | – | – | IC50 against S. aureus ([1]; Tables 6-9, listed as (KFmoc)WYm-NH2): 9 µg/mL (≈ 10.6 µM); IC50 against S. sanguis ([2]; Tables 10-13, listed as (KFmoc)WYm-NH2): 8 µg/mL (≈ 9.43 µM)
11 | CS(=O)(=O)CC[C@H](NC(=O)[C@H](Cc1ccc(O)cc1)NC(=O)[C@H](Cc1c[nH]c2ccccc12)NC(=O)[C@H](CCCCN)NC(=O)OCC1c2ccccc2-c2ccccc21)C(N)=O [(KFmoc)WY(MetO2)-NH2] (Fmoc-KWY[Met(O2)]-NH2) | – | – | 40 | – | –
12 | NCCCC[C@H](NC(=O)OCC1c2ccccc2-c2ccccc21)C(=O)N[C@@H](Cc1c[nH]c2ccccc12)C(=O)N[C@@H](CCCCN)C(=O)N[C@@H](CCC(=O)O)C(N)=O [(KFmoc)WKE-NH2] (Fmoc-KWKE-NH2) | 37 (≈ 45.6 µM) | 50 (≈ 61.7 µM) | – | – | IC50 against S. aureus ([1]; Tables 6-9, listed as (KFmoc)WKe-NH2): 43 µg/mL (≈ 53 µM)
13 | NCCCC[C@H](NC(=O)OCC1c2ccccc2-c2ccccc21)C(=O)N[C@@H](Cc1c[nH]c2ccccc12)C(=O)N[C@H](Cc1ccccc1)C(=O)N[C@@H](CC(N)=O)C(N)=O [(KFmoc)WfN-NH2] (Fmoc-KW[dF]N-NH2) | 8 (≈ 9.82 µM) | 10 (≈ 12.3 µM) | – | – | IC50 against S. aureus ([1]; Tables 6-9, listed as (KFmoc)Wfn-NH2): 35 µg/mL (≈ 42.9 µM)
14 | CC[C@@H](C)[C@@H](NC(=O)[C@@H](CS)NC(=O)[C@H](CCCCN)NC(=O)OCC1c2ccccc2-c2ccccc21)C(=O)NCCCCCC(N)=O [(KFmoc)ci(eAca)-NH2] (Fmoc-K[dC][dI][Ahx]-NH2) | – | – | 16 | 42 | –
15 | NCCCC[C@H](NC(=O)OCC1c2ccccc2-c2ccccc21)C(=O)N[C@@H](Cc1c[nH]c2ccccc12)C(=O)N[C@@H](Cc1ccc(O)cc1)C(=O)N[C@@H](Cc1c[nH]c2ccccc12)C(N)=O [(KFmoc)WYW-NH2] (Fmoc-KWYW-NH2) | 7 (≈ 7.75 µM) | 9 (≈ 9.97 µM) | – | – | IC50 against S. aureus ([1]; Tables 6-9, listed as (KFmoc)WYw-NH2): 16 µg/mL (≈ 17.7 µM); IC50 against S. sanguis ([2]; Tables 10-13, listed as (KFmoc)WYw-NH2): 21 µg/mL (≈ 23.3 µM)
16 | NCCCC[C@H](NC(=O)OCC1c2ccccc2-c2ccccc21)C(=O)N[C@@H](Cc1c[nH]c2ccccc12)C(=O)N[C@@H](CCCCN)C(=O)N[C@@H](CC(N)=O)C(=O)O [(KFmoc)WK(bAsp)-NH2] (Fmoc-KWKN-OH) | 15 (≈ 18.8 µM) | 19 (≈ 23.8 µM) | – | – | –
17 | NCCCC[C@H](NC(=O)OCC1c2ccccc2-c2ccccc21)C(=O)N[C@@H](Cc1c[nH]c2ccccc12)C(=O)N[C@@H](Cc1ccc(O)cc1)C(=O)NCCCCCCC(N)=O [(KFmoc)WY(7aHa)-NH2] (Fmoc-KWY[Ahp]-NH2) | – | – | 5 | 14 | –
18 | CC[C@@H](C)[C@@H](NC(=O)[C@@H](CS)NC(=O)[C@H](CCCCN)NC(=O)OCC1c2ccccc2-c2ccccc21)C(=O)NCCCCCCC(N)=O [(KFmoc)ci(7aHa)-NH2] (Fmoc-K[dC][dI][Ahp]-NH2) | – | – | 15 | 53 | –
19 | NCCCC[C@H](NC(=O)OCC1c2ccccc2-c2ccccc21)C(=O)N[C@@H](Cc1c[nH]c2ccccc12)C(=O)N[C@@H](Cc1ccc(O)cc1)C(=O)NCCC(N)=O [(KFmoc)WY(Bala)-NH2] (Fmoc-KWY[βAla]-NH2) | – | – | 18 | 26 | –
20 | CCC[C@H](NC(=O)[C@H](Cc1ccc(O)cc1)NC(=O)[C@H](Cc1c[nH]c2ccccc12)NC(=O)[C@H](CCCCN)NC(=O)OCC1c2ccccc2-c2ccccc21)C(N)=O [(KFmoc)WY(Nve)-NH2] (Fmoc-KWY[Nva]-NH2) | – | 9 (≈ 11 µM) | 20 | 18 | –
21 | C[C@H](NC(=O)[C@@H](Cc1ccccc1)NC(=O)[C@H](Cc1c[nH]c2ccccc12)NC(=O)[C@H](CCCCN)NC(=O)OCC1c2ccccc2-c2ccccc21)C(N)=O [(KFmoc)WfA-NH2] (Fmoc-KW[dF]A-NH2) | 15 (≈ 19.4 µM) | 10 (≈ 13 µM) | – | – | IC50 against S. aureus ([1]; Tables 6-9, listed as (KFmoc)Wfa-NH2): 8 µg/mL (≈ 10.4 µM); IC50 against S. sanguis ([2]; Tables 10-13, listed as (KFmoc)Wfa-NH2): 9 µg/mL (≈ 11.7 µM)
22 | NCCCC[C@H](NC(=O)OCC1c2ccccc2-c2ccccc21)C(=O)N[C@@H](Cc1c[nH]c2ccccc12)C(=O)N[C@H](Cc1ccccc1)C(=O)NCCCCCC(N)=O [(KFmoc)Wf(eAca)-NH2] (Fmoc-KW[dF][Ahx]-NH2) | – | – | – | 60 | –
